The list shows a part of the results. Repeats are few or missing, and single values can be far off.
System: A2058
Assay: cell count relative to DMSO control; melanoma cells; higher = more viable cells
Conditions: library dose: low library concentration; 72 h
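Further: cell number obtained by counting DAPI-stained nuclei in high-throughput microscope images with image analysis software, screen run in 1,536-well plates.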

**Q.** For `CS(=O)(=O)CCNCc1ccc(-c2ccc3ncnc(Nc4ccc(OCc5cccc(F)c5)c(Cl)c4)c3c2)o1` [lapatinib] + Cc1cc(SCc2sc(-c3ccc(C(F)(F)F)c(F)c3)nc2C)ccc1OCC(=O)O [GW0742] (first compound 0.8 µM, partner dose 2 µM), which cell count is on record?
**A.** 110%

**Q.** For `NC1(c2ccc(-c3nc4ccn5c(=O)[nH]nc5c4cc3-c3ccccc3)cc2)CCC1` + C/C(O)=C(\C#N)C(=O)Nc1cc(Br)ccc1Br [LFM-A13] (first compound 0.4 µM, partner dose 2 µM), which cell count is on record?
**A.** 89.6%

**Q.** Which cell count does the source give for `CC(=O)c1c(C)c2cnc(Nc3ccc(N4CCNCC4)cn3)nc2n(C2CCCC2)c1=O` [palbociclib] + O=C(Oc1ccc([N+](=O)[O-])cc1)N1CCC(C(O)(c2ccc3c(c2)OCO3)c2ccc3c(c2)OCO3)CC1 [JZL184] (first compound 0.04 µM, partner dose 1 µM) here?
**A.** 100%

System: C32
Assay: as above
Conditions: library dose: low library concentration; 72 h

**Q.** Which cell count does the source give for `COc1ccc(C2=N[C@@H](c3ccc(Cl)cc3)[C@@H](c3ccc(Cl)cc3)N2C(=O)N2CCNC(=O)C2)c(OC(C)C)c1` [Nutlin-3] + C/C(O)=C(\C#N)C(=O)Nc1cc(Br)ccc1Br [LFM-A13] (first compound 0.1 µM, partner dose 2 µM) here?
**A.** 94.7%

**Q.** For `CCCCCCCCCCCCCCCCCCOP(=O)([O-])OC1CC[N+](C)(C)CC1` [Perifosine] + O=C(Oc1ccc([N+](=O)[O-])cc1)N1CCC(C(O)(c2ccc3c(c2)OCO3)c2ccc3c(c2)OCO3)CC1 [JZL184] (first compound 0.4 µM, partner dose 1 µM), which cell count is on record?
**A.** 107%

**Q.** `CCN(CC)CCNC(=O)c1c(C)[nH]c(/C=C2\C(=O)Nc3ccc(F)cc32)c1C` [sunitinib] + Cc1cc(SCc2sc(-c3ccc(C(F)(F)F)c(F)c3)nc2C)ccc1OCC(=O)O [GW0742] (first compound 0.4 µM, partner dose 2 µM) was tested. Which cell count did it give?
**A.** 93.2%

**Q.** With `Nc1nc(F)nc2c1ncn2[C@@H]1O[C@H](CO)[C@@H](O)[C@@H]1O` [fludarabine] + C/C(O)=C(\C#N)C(=O)Nc1cc(Br)ccc1Br [LFM-A13] (first compound 0.2 µM, partner dose 2 µM) as the compound, how does the cell count read?
**A.** 100%

**Q.** `Cc1cc(Nc2cc(N3CCN(C)CC3)nc(/C=C/c3ccccc3)n2)n[nH]1` + C/C(O)=C(\C#N)C(=O)Nc1cc(Br)ccc1Br [LFM-A13] (first compound 0.04 µM, partner dose 2 µM) was tested. Which cell count did it give?
**A.** 81.3%

**Q.** Which cell count does the source give for `NC1(c2ccc(-c3nc4ccn5c(=O)[nH]nc5c4cc3-c3ccccc3)cc2)CCC1` + Cc1cc(SCc2sc(-c3ccc(C(F)(F)F)c(F)c3)nc2C)ccc1OCC(=O)O [GW0742] (first compound 0.4 µM, partner dose 2 µM) here?
**A.** 97.7%

**Q.** Which cell count does the source give for `Nc1ncn([C@H]2C[C@H](O)[C@@H](CO)O2)c(=O)n1` [decitabine] + C/C(O)=C(\C#N)C(=O)Nc1cc(Br)ccc1Br [LFM-A13] (first compound 0.1 µM, partner dose 2 µM) here?
**A.** 94.2%

**Q.** Which cell count does the source give for `CCCCCCCCc1ccc(CCC(N)(CO)CO)cc1` [fingolimod] + C/C(O)=C(\C#N)C(=O)Nc1cc(Br)ccc1Br [LFM-A13] (first compound 2 µM, partner dose 2 µM) here?
**A.** 96.5%

**Q.** Which cell count does the source give for `CC[C@]1(O)C[C@H]2CN(CCc3c([nH]c4ccccc34)[C@@](C(=O)OC)(c3cc4c(cc3OC)N(C=O)[C@H]3[C@@](O)(C(=O)OC)[C@H](OC(C)=O)[C@]5(CC)C=CCN6CC[C@]43[C@@H]65)C2)C1` [vincristine] + Cc1cc(SCc2sc(-c3ccc(C(F)(F)F)c(F)c3)nc2C)ccc1OCC(=O)O [GW0742] (first compound 0.0001 µM, partner dose 2 µM) here?
**A.** 105%

**Q.** For `Cc1ccc(Nc2nccc(N(C)c3ccc4c(C)n(C)nc4c3)n2)cc1S(N)(=O)=O` [Pazopanib] + C/C(O)=C(\C#N)C(=O)Nc1cc(Br)ccc1Br [LFM-A13] (first compound 0.4 µM, partner dose 2 µM), which cell count is on record?
**A.** 102%

**Q.** For `COc1cc([C@@H]2c3cc4c(cc3[C@@H](O[C@@H]3O[C@@H]5CO[C@@H](C)O[C@H]5[C@H](O)[C@H]3O)[C@H]3COC(=O)[C@H]23)OCO4)cc(OC)c1O` [etoposide] + Cc1cc(SCc2sc(-c3ccc(C(F)(F)F)c(F)c3)nc2C)ccc1OCC(=O)O [GW0742] (first compound 0.02 µM, partner dose 2 µM), which cell count is on record?
**A.** 111%

**Q.** How did the cell count turn out when `Cc1cc(Nc2cc(N3CCN(C)CC3)nc(/C=C/c3ccccc3)n2)n[nH]1` + Cc1cc(SCc2sc(-c3ccc(C(F)(F)F)c(F)c3)nc2C)ccc1OCC(=O)O [GW0742] (first compound 0.04 µM, partner dose 2 µM) was run?
**A.** 107%

**Q.** Which cell count does the source give for `Cn1cnc2c(F)c(Nc3ccc(Br)cc3Cl)c(C(=O)NOCCO)cc21` [selumetinib] + C/C(O)=C(\C#N)C(=O)Nc1cc(Br)ccc1Br [LFM-A13] (first compound 0.015 µM, partner dose 2 µM) here?
**A.** 93%

**Q.** With `NC(=O)c1ccc(N(C(N)=O)c2c(F)cccc2F)nc1-c1ccc(F)cc1F` + C/C(O)=C(\C#N)C(=O)Nc1cc(Br)ccc1Br [LFM-A13] (first compound 0.4 µM, partner dose 2 µM) as the compound, how does the cell count read?
**A.** 86.6%

**Q.** With `O=C(O)[C@@H]1[O][Sb](=[O])([O][Sb]2(=[O])[O][C@H]([C@H](O)CO)[C@H](O)[C@H](C(=O)O)[O]2)[O][C@H]([C@H](O)CO)[C@@H]1O` (some centres undefined) [stibogluconate] + O=C(Oc1ccc([N+](=O)[O-])cc1)N1CCC(C(O)(c2ccc3c(c2)OCO3)c2ccc3c(c2)OCO3)CC1 [JZL184] (first compound 2 µM, partner dose 1 µM) as the compound, how does the cell count read?
**A.** 129%

**Q.** How did the cell count turn out when `Cc1ccc(Nc2nccc(N(C)c3ccc4c(C)n(C)nc4c3)n2)cc1S(N)(=O)=O` [Pazopanib] + O=C(Oc1ccc([N+](=O)[O-])cc1)N1CCC(C(O)(c2ccc3c(c2)OCO3)c2ccc3c(c2)OCO3)CC1 [JZL184] (first compound 0.4 µM, partner dose 1 µM) was run?
**A.** 110%

**Q.** How did the cell count turn out when `CNC(=O)c1cc(Oc2ccc(NC(=O)Nc3ccc(Cl)c(C(F)(F)F)c3)cc2)ccn1` [sorafenib] + O=C(Oc1ccc([N+](=O)[O-])cc1)N1CCC(C(O)(c2ccc3c(c2)OCO3)c2ccc3c(c2)OCO3)CC1 [JZL184] (first compound 0.4 µM, partner dose 1 µM) was run?
**A.** 87.9%

**Q.** For `CNC(=O)c1cc(Oc2ccc(NC(=O)Nc3ccc(Cl)c(C(F)(F)F)c3)cc2)ccn1` [sorafenib] + C/C(O)=C(\C#N)C(=O)Nc1cc(Br)ccc1Br [LFM-A13] (first compound 0.4 µM, partner dose 2 µM), which cell count is on record?
**A.** 96.7%

**Q.** `CCCS(=O)(=O)Nc1ccc(F)c(C(=O)c2c[nH]c3ncc(Cl)cc23)c1F` + O=C(Oc1ccc([N+](=O)[O-])cc1)N1CCC(C(O)(c2ccc3c(c2)OCO3)c2ccc3c(c2)OCO3)CC1 [JZL184] (first compound 0.08 µM, partner dose 1 µM) was tested. Which cell count did it give?
**A.** 79.5%

**Q.** For `CCCCCCCCc1ccc(CCC(N)(CO)CO)cc1` [fingolimod] + O=C(Oc1ccc([N+](=O)[O-])cc1)N1CCC(C(O)(c2ccc3c(c2)OCO3)c2ccc3c(c2)OCO3)CC1 [JZL184] (first compound 2 µM, partner dose 1 µM), which cell count is on record?
**A.** 82.2%

**Q.** `Cc1cn(-c2cc(NC(=O)c3ccc(C)c(Nc4nccc(-c5cccnc5)n4)c3)cc(C(F)(F)F)c2)cn1` [nilotinib] + O=C(Oc1ccc([N+](=O)[O-])cc1)N1CCC(C(O)(c2ccc3c(c2)OCO3)c2ccc3c(c2)OCO3)CC1 [JZL184] (first compound 0.2 µM, partner dose 1 µM) was tested. Which cell count did it give?
**A.** 106%

**Q.** How did the cell count turn out when `CN(c1ncccc1CNc1nc(Nc2ccc3c(c2)CC(=O)N3)ncc1C(F)(F)F)S(C)(=O)=O` + Cc1cc(SCc2sc(-c3ccc(C(F)(F)F)c(F)c3)nc2C)ccc1OCC(=O)O [GW0742] (first compound 0.08 µM, partner dose 2 µM) was run?
**A.** 84.3%

**Q.** For `C[C@@H](Oc1cc(-c2cnn(C3CCNCC3)c2)cnc1N)c1c(Cl)ccc(F)c1Cl` [Crizotinib] + Cc1cc(SCc2sc(-c3ccc(C(F)(F)F)c(F)c3)nc2C)ccc1OCC(=O)O [GW0742] (first compound 0.2 µM, partner dose 2 µM), which cell count is on record?
**A.** 95.2%

**Q.** Which cell count does the source give for `O=c1[nH]nc(Sc2ncc([N+](=O)[O-])s2)n1-c1ccc2c(c1)OCCO2` + Cc1cc(SCc2sc(-c3ccc(C(F)(F)F)c(F)c3)nc2C)ccc1OCC(=O)O [GW0742] (first compound 0.2 µM, partner dose 2 µM) here?
**A.** 97.1%

**Q.** `CC[C@]1(O)C[C@H]2CN(CCc3c([nH]c4ccccc34)[C@@](C(=O)OC)(c3cc4c(cc3OC)N(C=O)[C@H]3[C@@](O)(C(=O)OC)[C@H](OC(C)=O)[C@]5(CC)C=CCN6CC[C@]43[C@@H]65)C2)C1` [vincristine] + O=C(Oc1ccc([N+](=O)[O-])cc1)N1CCC(C(O)(c2ccc3c(c2)OCO3)c2ccc3c(c2)OCO3)CC1 [JZL184] (first compound 0.0001 µM, partner dose 1 µM) was tested. Which cell count did it give?
**A.** 76.4%

**Q.** With `CC(=O)c1c(C)c2cnc(Nc3ccc(N4CCNCC4)cn3)nc2n(C2CCCC2)c1=O` [palbociclib] + C/C(O)=C(\C#N)C(=O)Nc1cc(Br)ccc1Br [LFM-A13] (first compound 0.04 µM, partner dose 2 µM) as the compound, how does the cell count read?
**A.** 69.1%
